{
  "source": "PubChem BioAssay (NCATS)",
  "note": "Inconclusive results, whose numbers are uncertain, are shown with a selection of clear calls. Where the call is inconclusive, the potency comes from a doubtful curve fit. Some compounds were tested as several samples or in several runs, with calls that do not always agree. Active and inactive are the calls of the source. Calls come from the whole dose curve; as a rule, active = well fitted activation curve with a large enough effect; inconclusive = small, poorly fitted or top-dose-only effect; inactive = no such curve, though single readings can be large or run the other way. Potency is the fitted concentration of half-maximal effect; tags give direction and shape of the fitted curve.",
  "data": [
    {"target": "Cellular tumor antigen p53 (Homo sapiens) (UniProt P04637)", "sequence (P04637 whole entry, looked up)": "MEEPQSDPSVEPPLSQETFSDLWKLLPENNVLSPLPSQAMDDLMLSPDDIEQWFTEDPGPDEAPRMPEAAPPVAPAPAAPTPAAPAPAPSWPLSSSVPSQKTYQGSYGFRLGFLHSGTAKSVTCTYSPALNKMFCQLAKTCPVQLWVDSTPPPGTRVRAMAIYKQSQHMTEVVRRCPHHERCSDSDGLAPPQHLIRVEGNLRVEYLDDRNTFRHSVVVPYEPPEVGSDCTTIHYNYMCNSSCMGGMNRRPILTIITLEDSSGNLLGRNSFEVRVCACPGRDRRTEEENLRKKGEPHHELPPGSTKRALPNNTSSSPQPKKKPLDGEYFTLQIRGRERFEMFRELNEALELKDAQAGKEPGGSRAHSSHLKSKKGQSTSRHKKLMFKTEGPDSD", "experiment": "Primary qHTS for small molecule compounds that upregulate eGFP-tagged delta133p53alpha (in N-terminal) cells. (AID 2060322); note: nearly all actives have a fitted effect of over 75% in size;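 for activation: series mostly up to about 56 µM; 0% = DMSO vehicle and 100% = reference activator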", "details": "NCI-H358 eGFP-delta133p53alpha fluorescence, 24 h; activation: active compounds read high", "outline": "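NCI-H358 cells pre-induced 24 h with 10 ng/ml doxycycline to express N-terminal eGFP-delta133p53alpha, then dosed 24 h at 37C without doxycycline; fixed, Hoechst-stained, GFP intensity by laser scanning cytometry, normalized to DMSO (0%) and 57.5 uM 5-azacytidine (100%).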", "values": [
      {"smiles": "C[C@H]1O[C@@H](O[C@H]2CC[C@]3(CO)C4CC[C@]5(C)[C@@H](C6=CC(=O)OC6)CC[C@]5(O)[C@@H]4CC[C@H]3C2)[C@H](O)[C@H](O)[C@@H]1O[C@@H]1O[C@H](CO)[C@@H](O)[C@H](O)[C@H]1O", "note": "(stereo partly drawn)", "Potency": "inconclusive: 6.3 µM [activator, single point]"},
      {"smiles": "O=C(NCCN1CCC2(CC1)C(=O)NCN2c1cccc(F)c1)c1ccc2ccccc2c1", "Potency": "inconclusive: 30.1 µM [activator, single point]"},
      {"smiles": "CO[C@@H]1[C@H](O)[C@@H](O[C@@H]2C[C@H]3CC[C@@H]4C(CC[C@]5(C)[C@@H](C6=CC(=O)OC6)CC[C@]45O)[C@@]3(C)[C@H](O)C2)O[C@H](C)[C@@H]1O", "note": "(stereo partly drawn)", "Potency": "active: 1.04 µM"},
      {"smiles": "C#C[C@]1(O)CC[C@H]2[C@@H]3CCC4=CC(=O)CC[C@]4(C)[C@H]3CC[C@@]21C", "Potency": "inconclusive: 1.95 µM [activator, partial curve, poor fit]"},
      {"smiles": "CNC(=O)N1N=C(c2ccc(N)cc2)c2cc3c(cc2CC1C)OCO3", "note": "(stereo not drawn)", "activation": "inactive: 34.7%", "Potency": "inconclusive: 1.35 µM [activator, full curve, poor fit]"},
      {"smiles": "COc1cc(O)c2c(c1)CCC[C@@H](O)[C@H](O)C(=O)/C=C\\C[C@H](C)OC2=O", "Potency": "inconclusive: 8.3 µM [activator, partial curve, poor fit]"},
      {"smiles": "CC(=O)NCCc1c[nH]c2ccccc12", "Potency": "inconclusive: 12.6 µM [activator, single point]"},
      {"smiles": "C[C@]12C=CC(=O)C=C1CC[C@@H]1[C@@H]2CC[C@@]2(C)[C@H]1CC[C@]2(C)O", "Potency": "inconclusive: 30.9 µM [activator, single point]"},
      {"smiles": "COC(=O)C12C(=O)C(C)(O)C(=O)C1(C)C(C)=CC1C3(C=O)CCC(OC(C)=O)C(C)(C)C3CCC12C", "note": "(stereo not drawn)", "Potency": "inconclusive: 9.28 µM [activator, single point]"},
      {"smiles": "CN1CN(c2ccccc2)C2(CCN(CCCC(=O)c3ccc(F)cc3)CC2)C1=O", "activation": "inactive: 23.7%"},
      {"smiles": "CC(C)[C@]12O[C@@H]1[C@@H]1O[C@]13[C@]1(O[C@H]1C[C@@H]1C4=C(CC[C@@]13C)C(=O)OC4)[C@H]2O", "Potency": "inconclusive: 0.0024 µM [activator, full curve, poor fit]"},
      {"smiles": "CC(C)Oc1cccc(NC(=O)c2ccccc2C(F)(F)F)c1", "activation": "inactive: -17.6%"},
      {"smiles": "NC(=O)CI", "activation": "inactive: 22%"},
      {"smiles": "CC(=O)OC[C@]12C[C@H](OC(C)=O)C(C)=C[C@H]1O[C@@H]1[C@H](O)[C@@H](O)[C@@]2(C)[C@]12CO2", "Potency": "active: 0.467 µM"},
      {"smiles": "c1ccc2c(c1)OCC(C1=NCCN1)O2", "note": "(stereo not drawn)", "activation": "inactive: -26.9%", "Potency": "inconclusive: 4.9 µM [activator, partial curve, poor fit]"},
      {"smiles": "C[C@]12CC[C@H](O[C@@H]3O[C@H](CO)[C@@H](O)[C@H](O)[C@H]3O)CC1CC[C@@H]1C2CC[C@]2(C)[C@@H](C3=CC(=O)OC3)CC[C@]12O", "note": "(stereo partly drawn)", "Potency": "active: 11.7 µM"},
      {"smiles": "C[C@@]12OC(=O)[C@]1([C@@H](O)[C@@H]1C=CCCC1)NC(=O)[C@H]2CCCl", "Potency": "active: 2.73 µM"},
      {"smiles": "CC1=NN=C(c2ccc(N)cc2)c2cc3c(cc2C1)OCO3", "Potency": "active: 9.68 µM"},
      {"smiles": "CNC(C)Cc1ccccc1OC", "note": "(stereo not drawn)", "activation": "inconclusive: 36% [activator]"},
      {"smiles": "C#C[C@]1(O)CC[C@H]2[C@@H]3CCC4=CC(=O)CCC4=C3C=C[C@@]21CC", "Potency": "inconclusive: 38.9 µM [activator, single point]"},
      {"smiles": "CCN(CC)C(=O)N[C@@H]1C=C2c3cccc4[nH]cc(c34)C[C@@H]2N(C)C1", "Potency": "inconclusive: 9.78 µM [activator, partial curve, poor fit]"},
      {"smiles": "O=[N+]([O-])c1ncc[nH]1", "activation": "inactive: 15.2%"},
      {"smiles": "CCCN(CCC)C1CCc2cccc(O)c2C1", "note": "(stereo not drawn)", "activation": "inactive: 29.8%"},
      {"smiles": "C[C@]12CC[C@H]3[C@@H](CC[C@@]45O[C@H]4C(O)=C(C#N)C[C@]35C)[C@H]1CC[C@H]2O", "Potency": "active: 21.7 µM"},
      {"smiles": "CO[C@H]1C[C@H](O[C@H]2CC[C@]3(CO)[C@H]4CC[C@]5(C)[C@@H](C6=CC(=O)OC6)CC[C@]5(O)[C@@H]4CC[C@]3(O)C2)O[C@H](C)[C@H]1O", "Potency": "inconclusive: 0.415 µM [activator, full curve, poor fit]"},
      {"smiles": "CN1CC[C@@]2(C)c3cc(OC(=O)Nc4ccccc4)ccc3N(C)[C@@H]12", "activation": "inactive: 26.7%"}
    ]}
  ]
}
